{
  "source": "the supplement of paper PMC11417369",
  "note": "This is one part of the list.",
  "data": [
    {"system": "PfHDP1 homeodomain (GST-tagged)", "experiment": "gcPBM binding intensity (ln(normalized median fluorescence intensity)); higher = stronger DNA binding", "in_short": "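GST-fused DNA-binding domains of P. falciparum, expressed in E. coli, were applied at about 25 μg on average for 1 h to an Agilent 4 × 180k array of primer-extended double-stranded 36-bp intergenic genomic probes and negative controls. Binding intensity is the highest Masliner-normalised natural-log median intensity across replicate spots of either probe orientation, measured with Alexa488 anti-GST antibody and a 488 nm scan.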", "values": [
      {"sequence": "ATATCATAAATTTATGCATGTTCTTTCTTCAACTCT [TGCATGCA_site992]", "gcPBM binding intensity (ln)": 6.9},
      {"sequence": "GAATAAAAAATTGGCACACATAAATATATGGATATA [CACACA_site3047]", "gcPBM binding intensity (ln)": 6.28},
      {"sequence": "TTCAACATATTAAAAAGTACAGAATATAACATTATA [XGTACX_site1361]", "gcPBM binding intensity (ln)": 6.36},
      {"sequence": "TATACGTGAATGACAGTGCATTTCAAAAGTATAAAA [GTGCAC_site9887]", "gcPBM binding intensity (ln)": 7.92},
      {"sequence": "AATAAATTTAGACACACACACACATATAAATAAATA [CACACA_site6531]", "gcPBM binding intensity (ln)": 6.96},
      {"sequence": "ATAATATAATATATATGTACACATCCTTTTTGTGTA [XGTACX_site2879]", "gcPBM binding intensity (ln)": 6.7},
      {"sequence": "TAAAAGTAAAAAGGTAGTACCTAAATAATATATATA [XGTACX_site8399]", "gcPBM binding intensity (ln)": 6.92},
      {"sequence": "TGTGTAATATTCTGTTGTACATAACTCATAAATAAA [XGTACX_site5308]", "gcPBM binding intensity (ln)": 6.46},
      {"sequence": "TATATATCCTCTGAATGTACTTGTTTAATAATGTAG [XGTACX_site4332]", "gcPBM binding intensity (ln)": 6.11},
      {"sequence": "ATAAGATAGGCATATACACACATTTATTTACAGATA [CACACA_site5754]", "gcPBM binding intensity (ln)": 6.63},
      {"sequence": "TATTTTACAAAATAAGGTACGTAAATATATGGTAGG [XGTACX_site2133]", "gcPBM binding intensity (ln)": 7.23},
      {"sequence": "AAATATCTTTTATATTGTACATATTCCTTATGTGGA [XGTACX_site7638]", "gcPBM binding intensity (ln)": 6.23},
      {"sequence": "AAAAACAAAAAAGAAGCACACATATATATATATATA [CACACA_site8779]", "gcPBM binding intensity (ln)": 9.36},
      {"sequence": "AATATATAAATAAATACACACATAAAATAGAAATAT [CACACA_site1663]", "gcPBM binding intensity (ln)": 7.09},
      {"sequence": "CCTTATTATTATTTTACACACGTCCTAATAAGAGGA [CACACA_site1319]", "gcPBM binding intensity (ln)": 6.95},
      {"sequence": "TATTTAAAAATATATACACACATTTTATATTATTAT [CACACA_site781]", "gcPBM binding intensity (ln)": 6.32},
      {"sequence": "AATATTATATATATGGGTACTAATTCCTTTAATTTC [XGTACX_site102]", "gcPBM binding intensity (ln)": 6.04},
      {"sequence": "TTTATCTGATATATTACACACAAAAAAAAAAAAAAA [CACACA_site7637]", "gcPBM binding intensity (ln)": 6.2},
      {"sequence": "TTATATATATATTATAGTACATATATAATATAGTAA [XGTACX_site6869]", "gcPBM binding intensity (ln)": 6.14},
      {"sequence": "ATATATGAGCAAAAATATATAAGATAACACATAAAT [CACACA_negctrl_site167]", "gcPBM binding intensity (ln)": 7.25},
      {"sequence": "TCTCTATAAATAAATACATGCATATAATAAAGAATT [TGCATGCA_site710]", "gcPBM binding intensity (ln)": 6.98},
      {"sequence": "GAAATAGAAATAAAATAGGCATACAATAGAACTAAG [TGCATGCA_negctrl_site537]", "gcPBM binding intensity (ln)": 6.76},
      {"sequence": "TTATATATATATAATACACACATAATAATATATTTA [CACACA_site3038]", "gcPBM binding intensity (ln)": 6.67},
      {"sequence": "ATTTTTTTTATTTTTTCAATATATATATATATATAT [CACACA_negctrl_site1444]", "gcPBM binding intensity (ln)": 9.39},
      {"sequence": "CGCACAAAAATATACACACACACATCTATATTTATT [CACACA_site7675]", "gcPBM binding intensity (ln)": 7.41},
      {"sequence": "AAAACAAATGAGTACACACACATAAAAGTTGAAAAT [CACACA_site6238]", "gcPBM binding intensity (ln)": 6.97},
      {"sequence": "TACCCATATTAATATGTGCGCATATAAAAGTCAAAC", "gcPBM binding intensity (ln)": 8.1},
      {"sequence": "ATAAGATATGTATATACACACATTTATTTACATATA [CACACA_site3263]", "gcPBM binding intensity (ln)": 6.56},
      {"sequence": "GCATAAGAAATAAATAGTACACACATAGACACACAC [XGTACX_site3095]", "gcPBM binding intensity (ln)": 7.68},
      {"sequence": "TATATATATATATACACACACATATATATATATATA [CACACA_site1346]", "gcPBM binding intensity (ln)": 9.3},
      {"sequence": "ATATATATATCAACAACACACGATTAACTAAAAAAA [CACACA_site302]", "gcPBM binding intensity (ln)": 7.67},
      {"sequence": "TTTTTTTAAACTGAAAGTACTTATTCCAAGAAAATA [XGTACX_site50]", "gcPBM binding intensity (ln)": 5.94},
      {"sequence": "ATAATGACTAAATTTAAACACACAAGGGGAGTTTAC [CACACA_site8209]", "gcPBM binding intensity (ln)": 6.31},
      {"sequence": "TATGAAAAAATATATACACACATAATAAAGGTATAT [CACACA_site3737]", "gcPBM binding intensity (ln)": 6.42},
      {"sequence": "TTTGTTTTAAATATTATACACACGTAAAAGTATAAT [CACACA_site7954]", "gcPBM binding intensity (ln)": 6.57},
      {"sequence": "TAATATTATATATAAACACACATACCCATGTAAATA [CACACA_site5170]", "gcPBM binding intensity (ln)": 6.8},
      {"sequence": "AAAAAAAAAAATATATTATTTTACTTGTTTATTTTT [GTGCAC_negctrl_site435]", "gcPBM binding intensity (ln)": 6.14},
      {"sequence": "AATAATCAAATATTAAAAATTGTGCAAAAAAAAAAA [XGTACX_negctrl_site399]", "gcPBM binding intensity (ln)": 9.8},
      {"sequence": "TCGTACTTGTATTATGCACACATATAATTAAACATA [CACACA_site9089]", "gcPBM binding intensity (ln)": 10.5},
      {"sequence": "TAAAAAAAATAAACGTGTACATAAAAATGAATATGT [XGTACX_site119]", "gcPBM binding intensity (ln)": 6.54},
      {"sequence": "TTAATATATTAAATCTTACACACTAAAAAATATGTA [CACACA_site307]", "gcPBM binding intensity (ln)": 6.24},
      {"sequence": "AGTATACATATATATACACACACACCGATATATATA [CACACA_site8357]", "gcPBM binding intensity (ln)": 6.85},
      {"sequence": "TATGCGTCTTGCCTTGCACACTTTTATGAAAAAAAA [CACACA_site5174]", "gcPBM binding intensity (ln)": 8.05},
      {"sequence": "GAAAATATTATAGCACCACACACTTATTTTATATAT [CACACA_site2265]", "gcPBM binding intensity (ln)": 6.71},
      {"sequence": "AACGTTAAAAAAAAAATATATATAAGGAGAAAGCAC [XGTACX_negctrl_site338]", "gcPBM binding intensity (ln)": 6.8}
    ]}
  ]
}
